Laboratory results from the supplement of paper PMC10723795.
Counter-ions that a name gives are not always drawn. Some of the results follow.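 Rule for the calls: active = more than 2 SD below the DMSO mean: under 0.85 at 10 µM or 0.885 at 1 µM; inactive = the rest.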 Single values are uncertain, as repeats are few or missing. Where a SMILES comes first, the peptide text is derived from it.

Test system: RPE1
Test: nucleolar normality score relative to DMSO (fraction of DMSO control); RPE1 is a non-cancer human cell line; higher = more normal nucleoli (less nucleolar stress)
Details: 24 h
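Note: fixed cells immunolabelled for nucleolin and UBF, 40 image fields per well in 384-well plates, per-cell score = nucleolin nucleolar/nucleoplasm intensity ratio divided by the matching UBF ratio.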

| SMILES | nucleolar normality score (1 µM) | nucleolar normality score (10 µM) |
| --- | --- | --- |
| CC(C)C(C(=O)O)N1C(=O)C(=Cc2ccc(Br)cc2)SC1=S (configuration not stated) | inactive: 0.964 | inactive: 1 |
| CNC(=O)CN1CCC(Oc2cc3c(Nc4cccc(Cl)c4F)ncnc3cc2OC)CC1 [Sapitinib (AZD8931)] | inactive: 1.03 | inactive: 1.01 |
| CCN1CCCC1CNC(=O)c1cc(S(=O)(=O)CC)c(N)cc1OC (configuration not stated) [Amisulpride] | inactive: 0.943 | inactive: 1.02 |
| CCCS(=O)(=O)Nc1ccc(F)c(C(=O)c2c[nH]c3ncc(Cl)cc23)c1F | inactive: 1.03 | inactive: 1.15 |
| O=C(O)CCn1c(O)c(C2=c3cc(Cl)ccc3=NC2=O)sc1=S | inactive: 0.935 | inactive: 0.963 |
| S=P(N1CC1)(N1CC1)N1CC1 [Thiotepa] | inactive: 0.995 | inactive: 1.03 |
| O=C(Nc1cc(Cl)cc2c1[nH]c1cnccc12)c1cccnc1 | inactive: 0.961 | inactive: 0.994 |
| Oc1cc(O)c2c(c1)OC(c1ccc(O)c(O)c1)C(O)C2 (single isomer, unassigned; (+)) [(+)-Catechin] | inactive: 1.05 | inactive: 0.905 |
| COc1ccccc1OCCNCC(O)COc1cccc2[nH]c3ccccc3c12 (configuration not stated) [Carvedilol Phosphate] | inactive: 0.942 | inactive: 1.01 |
| COc1ccc(CCCOC(Cn2ccnc2)c2ccc(OC)cc2)cc1 (configuration not stated) | inactive: 1.03 | inactive: 1.05 |
| CC(C)CC(NC(=O)C(Cc1ccccc1)NC(=O)C(CCC(N)=O)NC(=O)C(Cc1ccc(O)cc1)NC(=O)C(C)NC(=O)CNC(=O)C(CCCCN)NC(=O)C(Cc1c[nH]c2ccccc12)NC(=O)C(NC(=O)C(Cc1c[nH]c2ccccc12)NC(=O)C(CCCCN)NC(=O)CNC(=O)C(CC(N)=O)NC(=O)C(CCC(=O)O)NC(=O)C(Cc1c[nH]c2ccccc12)NC(=O)C(NC(=O)C(Cc1c[nH]c2ccccc12)NC(=O)C(CO)NC(=O)CNC(=O)C1CCCN1C(=O)C(Cc1c[nH]c2ccccc12)NC(=O)C(CCC(N)=O)NC(=O)C(Cc1ccccc1)NC(=O)CNC(=O)C(N)Cc1c[nH]cn1)C(C)O)C(C)O)C(=O)NC(CCCCN)C(=O)NCC(=O)NCC(=O)NCC(=O)NCC(=O)NC(CO)C(=O)NC(CCCNC(=N)N)C(=O)NC(CCCNC(=N)N)C(=O)NC(CCCNC(=N)N)C(=O)NC(CCCNC(=N)N)C(=O)NC(CCCNC(=N)N)C(=O)NC(CCCNC(=N)N)C(=O)NC(CCCNC(=N)N)C(=O)NC(CCCNC(=N)N)C(=O)NC(CCCNC(=N)N)C(=O)O (configuration not stated) (H-HGFQWPGSWTWENGKWTWKGAYQFLKGGGGSRRRRRRRRR-OH; configuration not given here) | inactive: 0.937 | inactive: 1.06 |
| COC(=O)c1ccc(O)c(O)c1 [Methyl protocatechuate] | inactive: 1.01 | inactive: 0.878 |
| Cn1cncc1[C@@](N)(c1ccc(Cl)cc1)c1ccc2c(c1)c(-c1cccc(Cl)c1)cc(=O)n2C [Tipifarnib] | inactive: 1.08 | inactive: 1.13 |
| C[C@@H]1O[C@@H](O[C@H]2[C@H](O[C@H]3CC[C@@]4(C)[C@@H](CC[C@]5(C)[C@@H]4CC=C4[C@@H]6CC(C)(C)CC[C@]6(C(=O)O[C@@H]6O[C@H](CO[C@@H]7O[C@H](CO)[C@@H](O)[C@H](O)[C@H]7O)[C@@H](O)[C@H](O)[C@H]6O)CC[C@]45C)[C@]3(C)CO)OC[C@H](O)[C@@H]2O)[C@H](O)[C@H](O[C@@H]2O[C@H](CO)[C@@H](O[C@@H]3O[C@H](CO)[C@@H](O)[C@H](O)[C@H]3O)[C@H](O)[C@H]2O)[C@H]1O [Macranthoidin B] | inactive: 1.07 | inactive: 1.08 |
| O=c1[nH]c(=O)n([C@H]2C[C@H](O)[C@@H](CO)O2)cc1C(F)(F)F [Trifluridine] | inactive: 0.937 | inactive: 0.941 |
| Cc1cc(F)c(Nc2ncnc3cc(OCc4ccccc4)ccc23)cc1O | inactive: 0.907 | active: 0.722 |
| CC(C)n1cnc2c(NCCc3ccc(O)cc3)nc(-c3csc4ccccc34)nc21 [StemRegenin 1 (SR1)] | inactive: 1.12 | inactive: 1.17 |
| O=C(NNc1ccccc1)c1ccncc1 | inactive: 0.951 | inactive: 0.971 |
| O=C1OC(=O)[C@H]2[C@@H]1[C@@H]1CC[C@H]2O1 [Norcantharidin] | inactive: 1.04 | inactive: 1.07 |
| O=C(NCCCNc1nc(Nc2cccc(NC(=O)N3CCCC3)c2)ncc1I)c1cccs1 | inactive: 0.889 | inactive: 0.963 |
| Cc1cccc(-c2[nH]ncc2-c2ccc3ncccc3n2)n1 | inactive: 1.01 | inactive: 1.04 |
| Cc1ccccc1C(=O)Nc1ccc(C(=O)N2CCCC(N(C)C)c3ccccc32)cc1 (configuration not stated) [Mozavaptan] | inactive: 1.06 | active: 0.832 |
| C=C[C@@](C)(/C=C/c1ccc(O)cc1)CCC=C(C)C [Bakuchiol] | inactive: 0.934 | inactive: 0.892 |
| NS(=O)(=O)c1ccc(NC(=O)Nc2ccc(F)cc2)cc1 | inactive: 1.07 | inactive: 0.911 |
| CCCCCCCCNC(C)C(O)c1ccc(SC(C)C)cc1 (configuration not stated) [Suloctidil] | inactive: 1.03 | inactive: 1.01 |
| C=C(C)[C@@H]1CC[C@]2(C)CC[C@]3(C)[C@H](CC[C@@H]4[C@@]5(C)CC[C@H](O)C(C)(C)[C@@H]5CC[C@]43C)[C@@H]12 [Lupeol] | inactive: 0.974 | inactive: 1.01 |

| SMILES | nucleolar normality score (1 µM) | nucleolar normality score (10 µM) |
| --- | --- | --- |
| S=c1[nH]cnc2nc[nH]c12 [Mercaptopurine (6-MP)] | inactive: 1.02 | inactive: 1.05 |
| COc1cc2c(cc1OC)[C@@H]1C(=O)c3ccc4c(c3O[C@@H]1CO2)C=CC(C)(C)O4 [Deguelin] | inactive: 1.02 | inactive: 0.984 |
| CCCCCCOc1cc(C)c(O)c(C)c1C [HTHQ(1-O-Hexyl-2,3,5-trimethylhydroquinone)] | inactive: 1.05 | inactive: 1.02 |
| COc1ccc(OC)c(C2C(C#N)=C(N)Oc3n[nH]c(-c4ccc5ccccc5c4)c32)c1 (configuration not stated) | inactive: 0.988 | inactive: 0.943 |
| Oc1nc(-c2ccc(C(F)(F)F)cc2)nc2c1CSCC2 | inactive: 0.993 | inactive: 1.05 |
| COc1ccc(CCc2nc3cc(-c4c(C)noc4C)ccc3n2C[C@H](C)N2CCOCC2)cc1Cl | inactive: 1.03 | inactive: 1.07 |
| CNCc1ccc(-c2[nH]c3cc(F)cc4c3c2CCNC4=O)cc1 | inactive: 0.996 | inactive: 1.08 |
| CCNC(=O)c1noc(-c2cc(C(C)C)c(O)cc2O)c1-c1ccc(CN2CCOCC2)cc1 [Luminespib (AUY-922, NVP-AUY922)] | active: 0.317 | active: 0.31 |
| CC(=O)c1cc([N+](=O)[O-])c(Sc2ccc(F)cc2F)s1 | active: 0.857 | inactive: 0.943 |
| COc1cc(O)cc(O)c1C(=O)C=Cc1ccccc1 [Cardamonin] | inactive: 1.03 | inactive: 0.91 |
| N=C1CCCN1Cc1[nH]c(=O)[nH]c(=O)c1Cl.O=c1[nH]c(=O)n([C@H]2C[C@H](O)[C@@H](CO)O2)cc1C(F)(F)F | inactive: 0.96 | inactive: 0.973 |
| Cc1c(NC(=O)OC[C@@H]2COCCN2)cn2ncnc(Nc3ccc4c(cnn4Cc4cccc(F)c4)c3)c12 | inactive: 1.06 | inactive: 1.12 |
| Cc1ccc2nc(NCCN)c3ncc(C)n3c2c1 | inactive: 0.959 | inactive: 0.995 |
| CN1CCC(CNc2ccc3ncc(-c4cccc(OC(F)(F)F)c4)n3n2)CC1 [SGI-1776 free base] | inactive: 1.05 | inactive: 1.14 |
| C[C@H]1COC2(CCN(c3nc(=O)c4cc(C(F)(F)F)cc([N+](=O)[O-])c4s3)CC2)O1 (racemic) [BTZ043 Racemate] | inactive: 1.01 | inactive: 1.04 |
| COc1cc(C(=O)NC2CCN(C)CC2)ccc1Nc1ncc2c(n1)N(C1CCCC1)CC(F)(F)C(=O)N2C | inactive: 0.933 | inactive: 0.998 |
| O=C(NCc1cccc(O)c1)Nc1nc(-c2ccncc2)cs1 | inactive: 0.898 | inactive: 1.02 |
| COc1c(C)c2c(c(O)c1C/C=C(\C)CCC(=O)OCCN1CCOCC1)C(=O)OC2 [Mycophenolate Mofetil] | inactive: 1.04 | inactive: 1.11 |
| C#CC1(O)CC[C@H]2[C@@H]3CCC4=CC(=O)CC[C@@H]4[C@H]3CC[C@@]21CC (mixture of isomers) [Norgestrel] | inactive: 1.03 | inactive: 1.04 |
| Cn1cc(/C=C/C(=O)c2cccc(F)c2)cc1/C=C/C(=O)NO | inactive: 1.04 | inactive: 1.1 |
| C[C@@H](Nc1nc(N[C@H](C)C(F)(F)F)nc(-c2cccc(Cl)n2)n1)C(F)(F)F [Vorasidenib (AG-881)] | inactive: 1.03 | inactive: 1.04 |
| COc1nc(C)cnc1NS(=O)(=O)c1cccnc1-c1ccc(-c2nnco2)cc1 [Zibotentan (ZD4054)] | inactive: 0.984 | inactive: 1.05 |
| Cn1cc(C2=C(c3cn(CCCSC(=N)N)c4ccccc34)C(=O)NC2=O)c2ccccc21 [Bisindolylmaleimide IX (Ro 31-8220 Mesylate)] | inactive: 0.967 | inactive: 1.03 |
| NC(=O)Nc1sc(-c2ccc(F)cc2)cc1C(N)=O | inactive: 1.01 | inactive: 0.861 |
| C=C[C@H]1[C@H](O[C@@H]2O[C@H](CO)[C@@H](O)[C@H](O)[C@H]2O)OC=C2C(=O)OCC[C@]21O [Swertiamarin] | inactive: 1.06 | inactive: 0.945 |
